Screen size: about 420,000 compounds; about 64,000 (15%) were called active. The inconclusive results got no clear call from the source; some entries with a clear call stand among them for comparison. Calls follow the shape of the dose curve; as a rule, active = well fitted inhibition curve with a large enough effect; inconclusive = small, poorly fitted or top-dose-only effect; inactive = flat fitted curve, though single readings scatter. Potencies of inconclusive entries are left out as doubtful fits.
Assay: qHTS for Inhibitors of human tyrosyl-DNA phosphodiesterase 1 (TDP1): qHTS in cells in absence of CPT; also: nearly all actives have a fitted effect of over 55% in size
Conditions: DT40 Tdp1-/- hTDP1 cells, no CPT, ATP luminescence, 48 h; activity change, negative = growth inhibition: at 46.2 µM (top of the series) unless noted
How it was run: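 Luminescent ATP content (CellTiter-Glo) served as the growth readout. Knockout chicken DT40 cells expressing human TDP1 were exposed to compounds without camptothecin for a minimum 48 hr at 37 °C.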
% is scaled to controls: 0 for no effect and ±100 for the full control effect; potency is read from the fitted curve at half-maximal effect; tags tell the direction and shape of the fitted curve.

Structure (SMILES)	Potency	activity change, negative = growth inhibition
CC(C)CC(N)c1csc(Nc2cc(Oc3ccccc3)ncn2)n1 (centres undefined)	active: 20.6 µM	–
CCS(=O)(=O)C1=NN2C(=N)/C(=C\c3ccc(SCc4ccco4)o3)C(=O)N=C2S1	inactive	–
Cn1c(=O)c2c(ncn2CC(=O)OCC(=O)Nc2ccc(F)cc2Cl)n(C)c1=O	inactive	–
O=C(Nc1ccc2nc(SCCOc3ccccc3Cl)sc2c1)c1ccco1	inconclusive [inhibitor, single point]	–
COC(=O)c1ccc2nc(-c3cccc(Br)c3)c(Cc3ccccc3OC)n2c1	active: 20.6 µM	–
CCOc1cc(/C=N\Nc2ncc(F)c(N3CCOCC3)n2)ccc1Oc1nc(Cl)ncc1F	active: 1.84 µM	–
Cc1ccc(CCNC(=O)c2nn(C)c3c2CS(=O)(=O)c2ccccc2-3)cc1	inconclusive [inhibitor, single point]	–
COc1ccc(CCNC(=O)Cn2cnc3ccccc3c2=O)cc1OC	–	inconclusive: -34.3% [inhibitor]
C=CCO/N=C(/C)c1c(O)c(CC)c(-c2ccccc2)n(-c2ccccc2)c1=O	inactive	–
Cc1ccc(C2NC(c3ccc4c(c3)OCO4)=CC(c3cc(Br)ccc3O)N2)cc1 (centres undefined)	active: 4.47 µM	–
O=c1oc2c(CN3CCCCC3)c(O)ccc2cc1-c1nc2ccccc2[nH]1	inactive	–
Cc1ccc(Cn2cc(SCC(=O)Nc3nccs3)c3ccccc32)cc1	inconclusive [inhibitor, partial curve, poor fit]	–
CCc1cccc(NC(=O)CSc2n[nH]c(-c3ccccc3Cl)n2)c1	inconclusive [inhibitor, partial curve]	–
CC(C)OC(=O)c1c(NS(=O)(=O)c2ccccc2)sc2c1CCCC2	active: 5.17 µM	–
COc1ccc(-n2c(SCC(=O)Nc3nccs3)nc3c(c2=O)SC(C)C3)cc1 (centres undefined)	inconclusive [inhibitor, single point]	–
Cc1cc(NC(=O)COC(=O)C2CC(=O)N(c3cccc(Cl)c3)C2)no1 (centres undefined)	inactive	–
O=C(NC1CCCCC1)C(c1ccnc2ccccc12)N1CCc2ccccc2C1 (centres undefined)	inconclusive [inhibitor, single point]	–
COc1ccc(CCNC(=O)C2CCN(C(=O)c3ccc(C(C)(C)C)cc3)CC2)cc1OC	inconclusive [inhibitor, single point]	–
COc1cc(CNCCc2ccccc2)ccc1OCC(=O)NC(C)(C)C	inactive	–
[N-]=C=C1C(=S)NC(=O)[C@H]([n+]2ccccc2)[C@H]1c1ccc(Cl)cc1	inactive	–
CCCNC(=O)C1(C)CCN(C(=O)c2cc(C(C)(C)C)nn2C)C1 (centres undefined)	inactive	–
O=C(c1cccs1)N1CCC(c2nc3c(nnn3Cc3ccccc3Cl)c(=O)[nH]2)CC1	inconclusive [inhibitor, single point]	–

Structure (SMILES)	Potency	activity change, negative = growth inhibition
N=C(N)SCCc1ccc(OCc2ccc([N+](=O)[O-])cc2)cc1	inconclusive [inhibitor, full curve, poor fit]	–
N#Cc1c(Nc2ccc(F)cc2)sc(C(=O)c2ccccc2)c1N	inconclusive [inhibitor, single point]	–
COc1ccc(S(=O)(=O)N2CCCN(CC(=O)Nc3cc(NC(C)=O)ccc3OC)CC2)cc1	inconclusive [inhibitor, single point]	–
CS(=O)(=O)c1ccc(-c2cccc(NC(=O)c3ccc4c(c3)OCO4)c2)nn1	–	inconclusive: -33.2% [inhibitor]
Cc1ccc(C(NC(=O)CN2C(=O)NC3(CCCC3)C2=O)c2ccccc2)cc1 (centres undefined)	inactive	–
COc1cccc(CN2CCC2(C)C(=O)Nc2ccc(C)cc2)c1F (centres undefined)	active: 23.1 µM	–
CCOc1ccc(CCNC(=O)Cn2ccc3cc(S(=O)(=O)N4CCCC4)ccc32)cc1	inconclusive [inhibitor, single point]	–
Cc1nnc(N2CCN(c3cccc(Cl)c3)CC2)c2c1nnn2Cc1ccc(F)cc1	inconclusive [inhibitor, partial curve]	–
Cc1cc(C)c(S(=O)(=O)/N=C2\C=C(Nc3ccc(C(=O)O)cc3)C(=O)c3ccccc32)c(C)c1	active: 3.66 µM	–
c1ccc(-c2cc3nccc(-c4ccccn4)n3n2)cc1	–	inconclusive: -39.6% [inhibitor]
CCOC(=O)c1cn(CC)c2cc(N3CCCCC3)c(F)cc2c1=O	inactive	–
CCOc1ccc(C(C(=O)NCC2CCCO2)N(Cc2ccccc2)C(=O)c2snc(C(N)=O)c2N)cc1 (centres undefined)	inconclusive [inhibitor, single point]	–
COc1cc(C(=O)OCC(=O)Nc2ccccc2C(=O)NC2CC2)c([N+](=O)[O-])cc1OC	inactive	–
COc1ccc(-c2csc(NCCc3nc4cc(C(=O)NCCCO)ccc4n3Cc3ccc(C)cc3)n2)cc1	inconclusive [inhibitor, single point]	–
S=c1[nH]nc(-c2cccs2)n1/N=C/c1cn(-c2ccccc2)nc1-c1cccs1	inactive	–
Cc1nc2c(sc(=S)n2Cc2ccco2)c(=O)n1CC(=O)Nc1ccccc1	inconclusive [inhibitor, single point]	–
CCCNC(=O)Cn1ncc2c3ccccc3n(CCC)c2c1=O	active: 14.6 µM	–
Cn1c(OCc2ccco2)nc2c1c(=O)n(Cc1ccc(Cl)c(Cl)c1)c(=O)n2C	inconclusive [inhibitor, single point]	–
CCOc1ccc(OCC)c(NC(=O)c2cnn(-c3ccc(F)cc3)c2C2CCN(C(=O)OC(C)(C)C)CC2)c1	inconclusive [inhibitor, single point]	–
CCCN(CC(=O)Nc1ccc(F)c(F)c1F)C(=O)Cc1ccc(S(=O)(=O)N2CCOCC2)s1	inconclusive [inhibitor, single point]	–
CCOC(=O)C1CCCN(C(=O)Cn2ncc3c(C)n(Cc4ccc(F)cc4)c(C)c3c2=O)C1 (centres undefined)	active: 16.4 µM	–
CCn1cnc2scc(-c3ccc(C)c(C)c3)c2c1=O	inconclusive [inhibitor, single point]	–
